Data: PubChem BioAssay (NCI)
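Method: 48-hour compound exposure of cells in 96-well plates, five concentrations, linear interpolation of endpoints. GI50 is the concentration that inhibits growth by half. The concentration for full growth arrest is given as TGI.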

These compounds were tested on NCI-H322M lung (assay: growth of human tumour cells (NCI), 48 h).
For `CCCOc1nc(SCCC)nc2c1cnn2-c1ccccc1`, the GI50 was > 100 µM and the TGI was > 100 µM.
For `c1ccc2c(c1)nc1n2C2CCC(C2)N1` (stereo unspecified), the TGI was > 10 µM.
`CCN(CC)CC(C(=O)Nc1c(C)cccc1C)/C(C)=N\NC(=O)c1ccncc1` (stereo unspecified) was tested, and the TGI was > 100 µM.
In the case of `C=CCNC(=O)NCCCC(NC(C)=O)C(=O)NCc1ccccc1` (stereo unspecified), the TGI is reported as > 100 µM.
`N#Cc1cc([N+](=O)[O-])ccc1NC(=O)/C(=N/N)C(C(=O)c1ccc(Cl)c(Cl)c1)C1OC(=O)c2ccccc21` (stereo unspecified) was tested, and the TGI was > 100 µM.
